This is one part of the list.
B1: ENSG00000107863:be:win_2351|CDS|ENSG00000107863|bound_else_gene|NA|bound_elsewhere_windowed (ssRNA)
RNA: GGGAGUUCUACAGUCCGACGAUCAAAGAAUGGAGGAAAGAAAAGCCUCGAGUACCAGUCCGCCUGGCGAUUCUUUGGCUUCCAUCCCAUUUAUAGAUGAACCAACUAGCCCUAGCAUUGAUCAUGAUAUUGCACAUAUCCCUGCAACAGAGGAUUGAGCAUCA
B2: chr9:124811826:124811928:+|3pUTR|ENSG00000185585|msi1|total|mutant (ssRNA)
RNA: GGGAGUUCUACAGUCCGACGAUCAAGAAAUUUUCCCGCCCAACUCCCUGUUUCAUGAAAGAGAAAAGAGGCUCAGAAAAGUUCCGAGAGCAGCUCAGUGUCACACUGGGAGCUGGGCACAGCCGAUCUCCUUCCAGAAGGGUUCAACAGAGGAUUGAGCAUCA
B3: chr16:75111859:75112521:-|three_prime_utr|ENSG00000166816|control|control|control (ssRNA)
RNA: GGGAGUUCUACAGUCCGACGAUCGCUGCAGGAGGAGGUGGGCGCCGUGGGCGUGGAGACCAUGCGGCAGCUCAAGGCCGUGCUAGACCCCCAAGGCCUCAUGAAUCCAGGCAAAGUGCUGUGAAGGGGGUCUGAGCACUUAGCCAACAGAGGAUUGAGCAUCA
B4: chr3:160432293:160432405:+|CDS|ENSG00000113810|unk|total|mutant (ssRNA)
RNA: GGGAGUUCUACAGUCCGACGAUCGAAUUGUAUUUGCAACGGGCCGCAGAAUUGGACAAAAUUACUUAUGAAAGAGACAGUUUCCGACAGGCAUAUGAAGAUCUUCGGAAACAAAGGCUUAAUGAAUUUAUGGCAGGUUUUUAUCAACAGAGGAUUGAGCAUCA
B5: chr2:32508095:32508220:+|CDS|ENSG00000115760|unk|FALSE|unique (ssRNA)
RNA: GGGAGUUCUACAGUCCGACGAUCAGCCGAAGUAGCUUCUGCUGUCUGCCUUAGACUACAUCGUCCACGGGAUGCCAGCACAUUAGGCCUUUCACAAAUUAAAUUAUUGGGGCUCACUGCUUUUGGUACCACCUCUUCUGCAACCAACAGAGGAUUGAGCAUCA
B6: chr1:16124349:16124452:-|3pUTR|ENSG00000142627|msi1|FALSE|unique (ssRNA)
RNA: GGGAGUUCUACAGUCCGACGAUCUUUGUUUUGUUGGACAUUUUUUUCGAAUCUUAAUUUAUUAUUUUUUUUAUAUUUAUUGUUAGAAAAUGACUUAUUUCUGCUCUGGAAUAAAGUUGCAGAUGAUUCAAACCGAUCUUGGCUCAACAGAGGAUUGAGCAUCA
B7: chr18:2547350:2547451:-|CDS|ENSG00000101574|unk|total|mutant (ssRNA)
RNA: GGGAGUUCUACAGUCCGACGAUCCCGACAGAAGCACCUACGUUUUAUAAAGGAAGAACUUUAUCCCUCUUGGUCUGUGGAGGCCGUUGCUGAGUGGCACUGGGUAAAAGUAAGUUCAGAAGUCCGCUUAUUUGUUAAUACAGCCAACAGAGGAUUGAGCAUCA
B8: chr17:48762233:48762973:-|three_prime_utr|ENSG00000170703|control|control|control (ssRNA)
RNA: GGGAGUUCUACAGUCCGACGAUCGUCUCUUCCGACAGUGUCUCCAGUGUUCACAGAAUCAACUGAAGUUUUGUUUGCUCAUCUAGAUAUACUGGUCUUCCAUUAGUUCCUAGUAGCAGCAAUGGGGCCAACAGCCCUGCCUCUCAACAGAGGAUUGAGCAUCA
B9: chr11:74334375:74334476:-|3pUTR|ENSG00000165434|msi1|FALSE|unique (ssRNA)
RNA: GGGAGUUCUACAGUCCGACGAUCUUUUUGUUUUAUUUUUAAAAUGUGUAAAACAUCUUUUGUUUUAUAUGCUUUUAAGAAUGUAGAUUGUAAUUUAGGAAAUGGCAUAUAUUCUGCAAAGUGGUAUAAUGUUGUAUAUAUGAACAACAGAGGAUUGAGCAUCA
B10: chr22:45843749:45843850:+|3pUTR|ENSG00000130638|msi1|FALSE|unique (ssRNA)
RNA: GGGAGUUCUACAGUCCGACGAUCAAAUUGCAAGUGUUUGAAGAUUUAUAAGUACAAAUUUGGGAACAUACAAAUCUUUUAGGUAGUAGAGUUUAACGUGUAUAAGCUAAAAGUGAAAGUAACUGAGUGUUCUCUUGUUUCUUUCAACAGAGGAUUGAGCAUCA
B11: chr11:119418629:119418730:-|3pUTR|ENSG00000154096|msi1|total|mutant (ssRNA)
RNA: GGGAGUUCUACAGUCCGACGAUCCCUCAGAGGCCUUGGGGCAUGACCCAGUGAAGAUGCAGGUUUGACCAGGAAAGCAGCGCCCGUGGAGGGUUGGAGAAGGAGGUAAAGGAUGAGGGUUCAUCAUCCCUCCCUGCCUAAGGACAACAGAGGAUUGAGCAUCA
B12: chr2:206003504:206003605:-|3pUTR|ENSG00000114933|msi1|total|mutant (ssRNA)
RNA: GGGAGUUCUACAGUCCGACGAUCGGUCGUGUGAGCCGCACAACCUUUUUCUGCUAAAAGUCCGCCCAAGAAGAAACAGAACACCGAAAGCUUGGAUUCCCGUCAGUGAGGCCGGGAUGUCCUAAAAAGCUUGCCUGGGAUGACCAACAGAGGAUUGAGCAUCA
B13: chr17:39471515:39471616:+|CDS|ENSG00000167258|unk|FALSE|unique (ssRNA)
RNA: GGGAGUUCUACAGUCCGACGAUCUUGCCUCCAAUACCAGCUCUUCCACAGCAACCACCUCUGCCUCCUUCUCAGCCAGCAUUUAGUCAGGUUCCUGCUUCCAGUACUUCAACUUUGCCCCCUUCUACUCACUCAAAGACAUCUCAACAGAGGAUUGAGCAUCA
B14: chr1:165890246:165890361:+|CDS|ENSG00000143179|unk|total|mutant (ssRNA)
RNA: GGGAGUUCUACAGUCCGACGAUCCUCCUGGGGCAGAAUGAGGUGGACUAUCGCCAGAAGCAGGUGGUCAUCCUGAGCCAGGACCGCUUCUACCGUGUCCUUACCUCGGAGCAGAAGGCCAAAGCCCUGAAGGGCCAGUUCAACCAACAGAGGAUUGAGCAUCA
B15: chr2:30158716:30158817:+|CDS|ENSG00000119801|msi1|total|mutant (ssRNA)
RNA: GGGAGUUCUACAGUCCGACGAUCGUUUGCCACUGAAGACAGCCAGCGAUAUAAGGAAGGCCGCGUGAUCCUGGAACGUGCUCCCGUUCGAGAGAGUGAGGGCUUUGAGGAGCAUGUACCAUCUGAUAACUCUUGAAGAUACAGCAACAGAGGAUUGAGCAUCA
B16: chr6:33573622:33573723:-|3pUTR|ENSG00000030110|unk|total|mutant (ssRNA)
RNA: GGGAGUUCUACAGUCCGACGAUCCGAAGUCUUUGCCUUCUCUGUUCCCUUGCAGGGGUCCCCCCUCAAGAGUACAGAAGCUUCCGCAAGUGUGCACUCCAGCUUCGGAGGGCCCCUGCGUGGGGGCCAGUCAGGCUGCAGAGGCAACAGAGGAUUGAGCAUCA
B17: chr6:122458524:122458701:-|CDS|ENSG00000111897|unk|total|mutant (ssRNA)
RNA: GGGAGUUCUACAGUCCGACGAUCGGAAGUGCCCCGUGUUUGCUAUGCCGAUGCUGUCCCCGUGGAAACAACUCCACUGUAACCCGAUUGAUCUAUGCACUUUUCUUGCUUGUUGGAGUAUGUGCCGCUUGUGUAAUGUUGAUACAACAGAGGAUUGAGCAUCA
B18: ENSG00000107863:be:win_3151|CDS|ENSG00000107863|bound_else_gene|NA|bound_elsewhere_windowed (ssRNA)
RNA: GGGAGUUCUACAGUCCGACGAUCAGGGAUCUAAUUAGUCGAAGAAUAAAAGAAUACAACAAUCUGAUGAGCAAAGCAGAACAGUUGCCAAAAACACCUCGCCAGAGUCUCAGCAUCAGGCAAACUUUGCUUGGUGCUAAAUCACAACAGAGGAUUGAGCAUCA
B19: chr10:30820206:30820444:-|three_prime_utr|ENSG00000183621|control|control|control (ssRNA)
RNA: GGGAGUUCUACAGUCCGACGAUCCUUAUCUAAUCUCCAAAUGAAGAAUGGGCCCAUCUGACAUAUCCUAUGAGCACAAAGCUUAGGGGACUCUUCACCGAAACCUAGACAAAUAUUUGAAUGCAUUUUUUUUUUUUUUUUUUGCAACAGAGGAUUGAGCAUCA
B20: chr6:106663037:106663138:+|CDS|ENSG00000130348|msi1|FALSE|unique (ssRNA)
RNA: GGGAGUUCUACAGUCCGACGAUCAGCACAGAAAGUGAGACGCCUCAUUGCUAAUGACUUUGUAAAUGCUUUUAACUCUGGAGUAGAUGUCUUGCUAACUCCCACCACCUUGAGUGAGGCAGUACCAUACUUGGAGUUCAUCAACAACAGAGGAUUGAGCAUCA
B21: chr7:44121865:44121972:-|CDS|ENSG00000106628|unk|total|mutant (ssRNA)
RNA: GGGAGUUCUACAGUCCGACGAUCGUGCCAGUGGCAACCUACACCAACUCCUCACAACCCUUCCGGCCCGGAGAGCGCAGCUUCCGCCGGCAGUAUGCCCACAUUUAUGCCACCCGCCUCAUCCAAAUGAGACCCUUCCUGGAGCAACAGAGGAUUGAGCAUCA
B22: chr11:8104520:8104621:+|3pUTR|ENSG00000166402|msi1|total|mutant (ssRNA)
RNA: GGGAGUUCUACAGUCCGACGAUCGGCAAUCAGCAAUCAACUGAGGUUUCUUAAUUGUGAUUAUAUUCCUGAGAAUGAAUGAGCCGGAAAGGAAUAAGGAUGUUGUUAUGAUCGCCUGUGGAUUUUGUCCAUUCAUCUCAUGCUCAACAGAGGAUUGAGCAUCA

Biological target: MSI1 full-length (mouse, UniProt Q61474 1-362)
Sequence of UniProt Q61474 (Q61474 whole entry): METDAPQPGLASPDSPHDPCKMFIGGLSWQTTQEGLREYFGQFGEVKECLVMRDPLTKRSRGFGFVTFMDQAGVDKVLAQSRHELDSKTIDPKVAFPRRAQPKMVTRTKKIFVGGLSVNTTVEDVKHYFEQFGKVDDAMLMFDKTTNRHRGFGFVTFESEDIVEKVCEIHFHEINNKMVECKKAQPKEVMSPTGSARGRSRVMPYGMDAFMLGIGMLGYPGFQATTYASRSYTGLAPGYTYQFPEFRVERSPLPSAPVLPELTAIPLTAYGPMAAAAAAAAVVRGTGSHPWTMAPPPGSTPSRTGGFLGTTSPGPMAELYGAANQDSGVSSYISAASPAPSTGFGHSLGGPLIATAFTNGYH
Assay: nsRBNS (natural sequence RNA bind-n-seq); RBNS binding buffer (assumed for nsRBNS): 25 mM Tris pH 7.5, 150 mM KCl, 3 mM MgCl2, 0.01% Triton X-100, 500 ug/ml BSA, 20 U/ml SUPERase-In, 4 C; UNK is unkempt and MSI1 is Musashi-1; names of the RNAs are library labels; protein concentration not given here; high values mean tight binding

Row | Binder | binding signal [enrichment R]
1 | B1 | 2.35
2 | B2 | 0.374
3 | B3 | 0.465
4 | B4 | 0.405
5 | B5 | 0.534
6 | B6 | 4.58
7 | B7 | 0.46
8 | B8 | 1.03
9 | B9 | 3.15
10 | B10 | 7.75
11 | B11 | 0.415
12 | B12 | 0.304
13 | B13 | 1.22
14 | B14 | 0.367
15 | B15 | 0.472
16 | B16 | 0.277
17 | B17 | 0.329
18 | B18 | 1.19
19 | B19 | 1.77
20 | B20 | 0.397
21 | B21 | 0.621
22 | B22 | 0.186

— publication PMC12136788
